Experimental data from PubChem BioAssay AID2147 (National Center for Advancing Translational Sciences (NCATS), 2009).
The whole screen tested about 230,000 compounds, of which about 3,600 (1.6%) were called active. This list was built around the results that the source calls inconclusive (neither active nor inactive); the mix of calls is not that of the screen. Calls come from the whole dose curve; as a rule, active = well fitted inhibition curve with a large enough effect (not every such curve was filed as active); inconclusive = small, poorly fitted or top-dose-only effect, or another doubt; inactive = no such curve, though single readings can be large or run the other way. Potencies of inconclusive entries are doubtful fits and often do not repeat.

Each molecule was assayed against Lysine-specific demethylase 4E (Homo sapiens) (UniProt B2RXH2) (assay: qHTS Assay for Inhibitors of Human Jumonji Domain Containing 2E (JMJD2E)). Details: JMJD2E catalytic domain, FDH-coupled NADH fluorescence (FDH is formaldehyde dehydrogenase); series mostly up to 57.1 µM.
Note: nearly all actives have a fitted effect of over 50% in size.
Potency is the fitted concentration of half-maximal effect; tags give direction and shape of the fitted curve.

Chain of UniProt B2RXH2 (B2RXH2 whole entry, looked up, the tested form may be a part): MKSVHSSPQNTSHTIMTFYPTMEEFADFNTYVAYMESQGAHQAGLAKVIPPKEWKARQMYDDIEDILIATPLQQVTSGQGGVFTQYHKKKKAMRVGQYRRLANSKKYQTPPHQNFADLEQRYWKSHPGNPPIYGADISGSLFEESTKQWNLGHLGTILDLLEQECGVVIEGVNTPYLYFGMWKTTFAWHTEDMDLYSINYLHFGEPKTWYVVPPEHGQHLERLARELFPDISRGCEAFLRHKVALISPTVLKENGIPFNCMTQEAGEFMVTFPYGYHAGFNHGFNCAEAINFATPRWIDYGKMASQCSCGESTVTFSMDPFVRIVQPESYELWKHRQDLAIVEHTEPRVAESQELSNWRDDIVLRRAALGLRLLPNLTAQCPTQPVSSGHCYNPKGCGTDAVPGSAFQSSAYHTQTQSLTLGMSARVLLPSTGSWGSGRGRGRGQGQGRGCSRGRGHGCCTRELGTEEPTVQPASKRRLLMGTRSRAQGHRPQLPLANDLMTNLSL

Row | Compound | Potency
1 | C/C=C(\C)[C@H](O)C[Si](C)(C)c1ccccc1 | inactive
2 | CC(C)NC(=O)Cn1c(=O)cnc2ccccc21 | inconclusive: 35.5 µM [inhibitor, partial curve]
3 | O=C(O)/C=C/C(=O)Nc1ccc2nccnc2c1 | inconclusive: 31.6 µM [inhibitor, partial curve]
4 | Cc1c2c(n3c(nc4ccccc43)c1C#N)N(CCN(C)C)CC2 | inconclusive: 28.2 µM [inhibitor, partial curve]
5 | O=C(Cn1c(=O)oc2cc(S(=O)(=O)N3CCCC3)ccc21)N1CCN(c2ccccn2)CC1 | inconclusive: 28.2 µM [inhibitor, single point]
6 | CC(=O)OCc1cc2cccc(C)c2[nH]c1=O | inconclusive: 35.5 µM [inhibitor, single point]
7 | COc1ccc(CN2C(=O)c3c(c(C)n(C)c3C)C2C(=O)NC2CCC(C)CC2)cc1 (centres undefined) | inactive
8 | COc1cccc(CS(=O)(=O)c2nnnn2CC(C)C)c1 | inactive
9 | CC(C)NC(=O)CCCc1c[nH]c2ccccc12 | inconclusive: 28.2 µM [inhibitor, single point]
10 | COc1ccccc1NC(=O)Nc1ccccc1SC | inactive
11 | O=C1c2cccc3cccc(c23)C(=O)N1CCCCCc1n[nH]c(=S)o1 | inconclusive: 28.2 µM [inhibitor, partial curve]
12 | COc1ccc(S(=O)(=O)N(CC(=O)N/N=C/c2cccs2)c2cc(C)cc(C)c2)cc1OC | inconclusive: 39.8 µM [inhibitor, single point]
13 | Cc1[nH]n(-c2cccc3ccccc23)c(=O)c1/C=N/NC(=O)c1cccc([N+](=O)[O-])c1 | inconclusive: 39.8 µM [inhibitor, single point]
14 | Oc1cc2ccccc2cc1-c1n[nH]c(=S)n1Cc1ccco1 | inconclusive: 31.6 µM [inhibitor, partial curve]
15 | Fc1ccc(Cn2c(-c3cscn3)nc3ccccc32)c(Cl)c1 | inconclusive: 35.5 µM [inhibitor, single point]
16 | C=CCN1C=CC(=O)CC1 | inactive
17 | O=C(COC(=O)c1cc(-c2ccccc2Cl)nc2ccccc12)Nc1ncc(C(F)(F)F)cc1Cl | inconclusive: 39.8 µM [inhibitor, single point]
18 | Cc1ccc(S(=O)(=O)N2CCN(c3ccnc4cc(Cl)ccc34)CC2)cc1 | inconclusive: 35.5 µM [inhibitor, single point]
19 | COC(=O)c1ccccc1N/C=C/C(=O)c1ccc(Br)cc1 | inconclusive: 28.2 µM [inhibitor, single point]
20 | O=C(CSc1nnc(Nc2ccccc2F)s1)NCc1ccco1 | inactive
21 | O=C(c1cccs1)c1cn(CC(=O)N2CCc3ccccc3C2)c2ccccc12 | inconclusive: 22.4 µM [inhibitor, single point]
22 | CCOC(=O)c1cc(-c2ccc(N3CCOCC3)cc2)nn1-c1ccc(F)cc1F | inconclusive: 25.1 µM [inhibitor, single point]

Row | Compound | Potency
23 | c1ccc(CCc2ccccc2-c2nc(-c3cccnc3)no2)cc1 | inactive
24 | COc1cccc(-c2cc(C(=O)N/N=C/c3ccc(OC)c(COC(C)=O)c3)c3ccccc3n2)c1 | inconclusive: 35.5 µM [inhibitor, single point]
25 | CN(C)C(=O)c1c2c(nc3ccccc13)-c1ccccc1CC2 | inconclusive: 31.6 µM [inhibitor, partial curve]
26 | CCOC(=O)CNc1nc(Cl)nc(Nc2ccc(Cl)cc2)n1 | inconclusive: 3.55 µM [inhibitor, single point]
27 | COc1ccc(N2CCC(CNC(=S)Nc3cccc(OC)c3)C2)cc1 (centres undefined) | inactive
28 | CCOc1ccc(C(=O)NCC(=O)Nc2ccc(N3CCOCC3)cc2)cc1OCC | inactive
29 | NC(=O)COc1ccc2oc(-c3ccccc3)cc(=O)c2c1 | inconclusive: 28.2 µM [inhibitor, partial curve]
30 | CN(C)NC1=CC(=[N+]2CCCC2)CC(C)(C)C1 | inconclusive: 11.2 µM [inhibitor, partial curve, poor fit]
31 | Cc1ccc(-n2c(O)c(C=NC3CCS(=O)(=O)C3)c3ccccc3c2=O)cc1 (centres undefined) | inconclusive: 25.1 µM [inhibitor, single point]
32 | Cc1cc(C)n2nc(C(=O)NCc3ccco3)cc2n1 | inconclusive: 31.6 µM [inhibitor, partial curve]
33 | COC(=O)C1=C(C)N2C(=O)CSC2=NC1c1ccc2c(c1)OCO2 (centres undefined) | inactive
34 | Cc1c(C(=O)Nc2nc3ccccc3[nH]2)oc2ccc(Br)cc12 | inconclusive: 39.8 µM [inhibitor, single point]
35 | Cc1ccc(/C=N/n2c(C)nnc2C)o1 | inconclusive: 39.8 µM [inhibitor, single point]
36 | CCN(CC)C(=O)N1CCN(S(=O)(=O)c2c(C)cc(C)cc2C)CC1 | inconclusive: 5.01 µM [inhibitor, single point]
37 | O=C(Nc1ccccc1C(F)(F)F)N1CCN(c2ccccn2)CC1 | inconclusive: 35.5 µM [inhibitor, single point]
38 | COC(=O)c1cc(NC(=O)CN(c2ccccc2OC)S(=O)(=O)c2ccccc2)ccc1Cl | inconclusive: 35.5 µM [inhibitor, single point]
39 | CC(C)[C@H](NC(=O)OC(C)(C)C)C(=O)N/N=C/c1cccc2nccnc12 | inconclusive: 7.08 µM [inhibitor, single point]
40 | CC(=O)/C(=N/Nc1ccccc1C)N1CCOCC1 | inactive
41 | COc1ccc(-c2nc(CSCC(=O)NC3CCCc4ccccc43)c(C)o2)cc1OC (centres undefined) | inconclusive: 28.2 µM [inhibitor, partial curve]
42 | CCOC(=O)c1sc2nc(C)nc(Nc3ccccc3)c2c1C | inconclusive: 5.62 µM [inhibitor, full curve]
43 | Cn1c(NN)nc2sc3c(c2c1=O)CCC3 | inconclusive: 25.1 µM [inhibitor, single point]
44 | Cc1nn(-c2ccccc2)nc1C(=O)c1c(C)[nH]n(-c2ccccc2)c1=O | inconclusive: 28.2 µM [inhibitor, single point]
